Measurements from paper PMC1793994.
Results are given in words; binding and its absence hold for the method and conditions named. In cells and extracts the contact can be indirect. Tags and fused reporters may be left off the sequences shown.

By UniProt entry, the sequences of proteins in these tests, tags left out.
UniProt Q13596: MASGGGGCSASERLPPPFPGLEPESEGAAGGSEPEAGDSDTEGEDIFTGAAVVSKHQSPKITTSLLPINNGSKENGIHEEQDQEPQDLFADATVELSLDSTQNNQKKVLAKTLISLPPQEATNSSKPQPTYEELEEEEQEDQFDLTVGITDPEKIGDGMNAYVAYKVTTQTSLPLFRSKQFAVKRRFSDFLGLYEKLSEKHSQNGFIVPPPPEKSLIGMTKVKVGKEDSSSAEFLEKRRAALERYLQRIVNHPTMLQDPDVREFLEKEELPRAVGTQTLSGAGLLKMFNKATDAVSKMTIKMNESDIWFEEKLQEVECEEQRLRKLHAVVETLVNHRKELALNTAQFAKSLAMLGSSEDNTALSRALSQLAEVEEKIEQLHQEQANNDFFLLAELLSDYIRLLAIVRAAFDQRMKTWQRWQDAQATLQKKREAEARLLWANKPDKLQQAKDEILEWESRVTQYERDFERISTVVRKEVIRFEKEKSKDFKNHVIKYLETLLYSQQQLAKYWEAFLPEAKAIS

Target: Myc-sorting nexin-1 (SNX1) (UniProt Q13596)
Assay: co-IP; HEK 293T co-transfected with one Myc-tagged and one GFP-tagged construct (2.5 μg each); lysis in 1% Triton X-100, 150 mM NaCl, 50 mM Tris-HCl pH 7.6; lysates rocked overnight at 4°C; 1 mg lysate, IP with 3 μg anti-Myc (9E10), anti-GFP immunoblot

B1: EHD1-GFP (protein, UniProt Q9H4M9 1-534)
chain: MFSWVSKDARRKKEPELFQTVAEGLRQLYAQKLLPLEEHYRFHEFHSPALEDADFDNKPMVLLVGQYSTGKTTFIRHLIEQDFPGMRIGPEPTTDSFIAVMHGPTEGVVPGNALVVDPRRPFRKLNAFGNAFLNRFMCAQLPNPVLDSISIIDTPGILSGEKQRISRGYDFAAVLEWFAERVDRIILLFDAHKLDISDEFSEVIKALKNHEDKIRVVLNKADQIETQQLMRVYGALMWSLGKIINTPEVVRVYIGSFWSHPLLIPDNRKLFEAEEQDLFKDIQSLPRNAALRKLNDLIKRARLAKVHAYIISSLKKEMPNVFGKESKKKELVNNLGEIYQKIEREHQISPGDFPSLRKMQELLQTQDFSKFQALKPKLLDTVDDMLANDIARLMVMVRQEESLMPSQVVKGGAFDGTMNGPFGHGYGEGAGEGIDDVEWVVGKDKPTYDEIFYTLSPVNGKITGANAKKEMVKSKLPNTVLGKIWKLADVDKDGLLDDEEFALANHLIKVKLEGHELPADLPPHLVPPSKRRHE
With B1 the binding was “no binding”.
